Screen size: about 310,000 compounds; about 2,200 (0.71%) showed an effect of 50% or more. The effect is printed as a negative number. The list shows a part of the results.
Each compound was assayed against human ether-à-go-go-related gene (hERG) potassium channel (human, UniProt Q12809) (assay: primary screen, population patch clamp on CHO cells stably expressing hERG).
Chain of human ether-à-go-go-related gene (hERG) potassium channel (Q12809 whole entry, looked up): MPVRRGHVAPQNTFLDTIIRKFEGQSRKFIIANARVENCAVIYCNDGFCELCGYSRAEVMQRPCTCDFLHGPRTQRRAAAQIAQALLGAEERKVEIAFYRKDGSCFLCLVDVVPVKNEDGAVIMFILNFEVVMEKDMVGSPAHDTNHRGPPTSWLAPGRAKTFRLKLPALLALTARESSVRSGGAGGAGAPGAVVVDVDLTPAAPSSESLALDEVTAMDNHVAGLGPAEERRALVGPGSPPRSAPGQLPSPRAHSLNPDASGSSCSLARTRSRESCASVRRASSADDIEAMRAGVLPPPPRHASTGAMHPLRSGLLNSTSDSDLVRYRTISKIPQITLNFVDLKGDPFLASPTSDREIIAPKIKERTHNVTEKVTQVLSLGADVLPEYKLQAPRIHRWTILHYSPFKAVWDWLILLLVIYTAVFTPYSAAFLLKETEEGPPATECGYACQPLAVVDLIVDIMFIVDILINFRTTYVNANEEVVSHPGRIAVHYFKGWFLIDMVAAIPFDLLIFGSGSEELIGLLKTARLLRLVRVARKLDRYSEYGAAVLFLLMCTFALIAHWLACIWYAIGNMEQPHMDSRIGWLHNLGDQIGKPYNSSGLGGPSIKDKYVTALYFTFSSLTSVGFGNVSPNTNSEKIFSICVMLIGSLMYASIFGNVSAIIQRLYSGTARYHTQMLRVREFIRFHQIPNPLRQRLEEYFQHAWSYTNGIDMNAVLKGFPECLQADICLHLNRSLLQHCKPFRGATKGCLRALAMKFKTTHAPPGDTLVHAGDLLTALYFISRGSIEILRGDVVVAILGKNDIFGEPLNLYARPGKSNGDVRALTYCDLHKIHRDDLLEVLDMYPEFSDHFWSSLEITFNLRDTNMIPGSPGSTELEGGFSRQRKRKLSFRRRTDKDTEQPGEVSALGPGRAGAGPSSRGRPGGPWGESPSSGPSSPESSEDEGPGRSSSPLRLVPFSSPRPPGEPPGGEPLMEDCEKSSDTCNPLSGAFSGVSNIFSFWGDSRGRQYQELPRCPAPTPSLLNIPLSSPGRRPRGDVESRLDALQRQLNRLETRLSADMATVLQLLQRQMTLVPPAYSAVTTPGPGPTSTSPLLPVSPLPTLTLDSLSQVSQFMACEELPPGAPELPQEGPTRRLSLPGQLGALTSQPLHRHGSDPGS

SMILES | hERG current change (%, negative = inhibition) at 1uM [%]
COc1ccc(N2CCN(C(c3cccs3)C(C)NS(=O)(=O)c3ccccc3)CC2)cc1 (stereo not shown) | 1.4
CC1CCN(C(=O)CN2C(=O)NC3(CCC(C)CC3)C2=O)CC1 (stereo not shown) | -5.46
COCCCNC(=S)NNC(=O)c1csc(C)n1 | 16.4
O=C(Nc1ccnn1C1CCN(Cc2ccc(OC(F)F)cc2)CC1)C1CCCC1 | -81.5
CC(C)Cn1c(CN(C)Cc2ccccc2)nc2c1c(=O)n(C)c(=O)n2C | -6.95
CC(C)NC(=O)c1cc2cc(Br)ccc2oc1=O | 11.9
CCCCn1c(=O)[nH]c(=O)c2c1nc(-c1ccc(C)c([N+](=O)[O-])c1)n2CC | -15.2
Cc1ccc(N(CC(=O)NC2CCCCC2)C(=O)CNC(=O)c2ccco2)cc1F | -5.3
CC(OC(=O)c1ccc2noc(-c3ccccc3)c2c1)C(N)=O (stereo not shown) | 14.4
COc1ccc(/C=C/C(=O)c2ccc(NC(=O)c3cccs3)cc2)cc1OC | -2.27
Cc1nc2c(nnn2Cc2ccccc2Cl)c(=O)[nH]1 | 13.6
C=CCOc1ccc(C2C(C(=O)c3ccco3)=C(O)C(=O)N2CCCN(CC)CC)cc1 (stereo not shown) | 13.7
COCCCn1c(-c2cccs2)nc2nc3ccccc3nc21 | 10.8
CCOC(=O)C1=NN(C(C)=O)C2C(=O)N(CC)C(=O)C12 (stereo not shown) | 14.1
CCCCCn1c(CN2CCN(c3cc(Cl)ccc3C)CC2)nc2c1c(=O)[nH]c(=O)n2C | 11.4
Cc1ccc([N+](=O)[O-])c(OCCN2C(=O)NC(C)(C)C2=O)c1 | 19.3
CCn1ncc(/C=C/C(=O)NCc2cn(C)nc2C)c1C | -4.5
CCN(CC)S(=O)(=O)c1cc(NC(=O)CSc2nnc(-c3cccs3)o2)ccc1C | 5.82
O=C(NCCN1CCOCC1)C(=O)NCc1ccc2c(c1)OCO2 | 9
O=c1cc(-c2ccc(Cl)cc2)[nH]c2ccccc12 | 7.64
O=C1CCN(Cc2ccc(Br)cc2)CCN1[C@H](CO)Cc1ccccc1 | 1.06
COc1ccc(-c2ccc(CCC(=O)O)n2CC2CCCO2)cc1 (stereo not shown) | 17.3

SMILES | hERG current change (%, negative = inhibition) at 1uM [%]
O=C(OCCNc1ccc(C(F)(F)F)cc1[N+](=O)[O-])c1cc2ccccc2oc1=O | 9.74
COc1ccc(N2CC(C(=O)Nc3nnc(SCCC4OCCO4)s3)CC2=O)cc1 (stereo not shown) | 7.25
Cc1ccc(NC(=S)NCCc2ccc(S(N)(=O)=O)cc2)c(C)c1 | 1.77
CC(NC(=O)c1cccnc1)C(=O)N1CCCCC1 (stereo not shown) | 9.85
O=C(CN1CCN(S(=O)(=O)c2ccc(Br)cc2)CC1)N/N=C/c1cccs1 | -9.92
Cc1ccc(S(=O)(=O)N2CC=C(C(=O)NCCC(C)C)CC2)cc1 | 4.86
Cc1cccc(N(CC(=O)NCc2ccccc2)C(=O)Cn2nnc(-c3ccc(C)o3)n2)c1 | -3.56
CCOc1ccc(NC(C)=O)cc1[N+](=O)[O-] | 5.43
COc1ccccc1NC(=O)Cc1cccc2ccccc12 | 15.1
[N-]=[N+]=NC[C@H](Cc1ccccc1)N1CC[C@@H](O)CCC1=O | 0.688
CCCCS(=O)(=O)N1CCC(C(=O)Oc2ccccc2OC)CC1 | 14.3
CSCc1nnc(NC(=O)c2ccc(S(=O)(=O)N3CCCCC3C)cc2)o1 (stereo not shown) | 7.3
COC(=O)c1c(C(=O)OC)c2ccccn2c1C(=O)c1ccccc1 | 18.7
COc1ccccc1N1CCN(/N=C/c2cc([N+](=O)[O-])ccc2Cl)CC1 | 18.1
CCCNC(=O)c1ccc(COc2ccc(C)cc2)o1 | 9.22
O=C(CNS(=O)(=O)c1ccccc1)Nc1cccc([N+](=O)[O-])c1 | -7.15
CCC[C@@H](O)c1cc2cc(OC)c(OC)cc2c(=O)o1 | 7.12
CC(C)(C)n1nnnc1C(c1ccc(C#N)cc1)N1CCCC2(CCCCC2)C1 (stereo not shown) | 8.24
Cl.O=C(COc1ccc(Cl)cc1)N(c1ccc(Cl)cc1)C1CN2CCC1CC2 (stereo not shown) | -22.4
CCCCCCc1cc2cc(C(=O)Nc3ccccc3OC)c(=O)oc2cc1O | 15.3
CCOc1ccc(S(=O)(=O)Nc2ccc3c(c2)OCO3)c2cccnc12 | 5.43
O=C(N/N=C/c1c(Cl)cccc1Cl)c1ccc(-n2cnnn2)cc1 | 9.97

SMILES | hERG current change (%, negative = inhibition) at 1uM [%]
CCc1cc(C(=O)Nc2ccc(OC)nc2)sc1C | -9.92
CC(NC(=O)c1cc(S(=O)(=O)N(C)C)ccc1Cl)c1ccc(-n2ccnc2)cc1 (stereo not shown) | -55.3
COc1ccc(Cc2nnc(-c3ccccc3)o2)cc1 | -2.61
Cc1nn(CC(=O)c2ccccc2Cl)c(C)c1[N+](=O)[O-] | 8.46
Cc1ccc(Cn2c(N)c(S(=O)(=O)c3cccs3)c3nc4ccccc4nc32)cc1 | 5.35
COC(=O)C1C2C=CC3(CN(c4cccc(C)c4)C(=O)C13)O2 (stereo not shown) | 12.7
COc1ccccc1NC(=O)CCC(=O)O | 16.8
O=C(Nc1cc(S(=O)(=O)N2CCOCC2)ccc1N1CCOCC1)C1CCCO1 (stereo not shown) | 4.92
Cc1cc2c(cc1S(=O)(=O)NCc1ccccc1)OCC(=O)N2 | -7.7
Cc1nn(CCCC(=O)NCc2ccccc2Cl)c(=O)c2nccn12 | 12
CCCNC(=S)Nc1c(C)n(C)n(-c2ccccc2)c1=O | 7.69
CCCc1cc(=O)[nH]c(SCC(=O)CSc2nc(CCC)cc(=O)[nH]2)n1 | 10.1
Cc1ccc(-c2nnc(Sc3nc4ccccc4o3)c3ccccc23)cc1 | 10.8
O=C1CCC/C(=N/NC(=O)c2cc(NS(=O)(=O)c3cccs3)cc(NS(=O)(=O)c3cccs3)c2)C1 | 12.4
CCOC(=O)C1(CCc2ccccc2)CCN(Cc2nccn2CC)CC1 | -47.2
CC(NC(=O)C(=O)N1CCCCC1)C(c1cccs1)N1CCN(Cc2ccccc2)CC1 (stereo not shown) | 8.49
CCCc1ccc(C(=O)[C@@H]2[C@@H](C(C)=O)N3c4ccc(F)cc4C=C[C@@H]3[C@@]23C(=O)Nc2ccccc23)cc1 | 9.46
CCCCNC(=O)c1ccccc1Cl | 22.8
N/C(Cn1cncn1)=N\OC(=O)c1ccc(Cl)cc1Cl | 5.16
CC(=O)NC1C(OC(=O)/C=C/c2ccccc2)OC(COC(C)=O)C(OC(C)=O)C1OC(C)=O (stereo not shown) | -5.25
COc1ccc(OCCC(=O)OCC(=O)NCc2ccccc2OC)cc1 | -4.71
COC(=O)CC1C(=O)NCCN1C(=O)CSc1nnnn1-c1ccc(Cl)cc1 (stereo not shown) | 13.7

SMILES | hERG current change (%, negative = inhibition) at 1uM [%]
Cc1ccc(C)c(NC(=S)NCc2ccc3c(c2)OCO3)c1 | 10.8
CCOC(=O)CNC(=O)COc1coc(CN2CCN(Cc3ccccc3)CC2)cc1=O | 7.22
COc1ccc(CCN(C)Cc2nc(Cc3ccc(OC)c(OC)c3)no2)cc1OC | 13.3
CCn1cc(CN2CCC(C(=O)Nc3cccc(-c4cccc(OC)c4)c3)CC2)c(C)n1 | -3.78
CC(C)(C)[C@@H]1C=C(C(N)=O)O[C@H](OCc2ccc(CO)cc2)C1 | 6.33
Cc1ccc(CN2CCNC2=O)cc1 | -6.74
O=C(OCC(=O)N1CCCc2ccccc21)c1cc(Br)ccc1O | 8.99
C=CCC(Nc1ccco1)c1ccccc1.Cl (stereo not shown) | -7.38
CCOc1ccc(-n2c(Cc3cc(=O)[nH]c(=O)[nH]3)nnc2SCc2cccnc2)cc1 | 9.65
Cc1ccc(C)c(Nc2cc(C)nc(-c3ccccc3O)n2)c1 | 10.3
CC1CCN(CCCNc2cc(NCCO)c([N+](=O)[O-])c3nonc23)CC1 | 15.9
CCN(Cc1ccccc1)C(=O)c1ccc2c(=O)n3c(nc2c1)CCC3 | 9.35
CN1CCC(N(C)C(=S)NCCc2ccccc2)CC1 | -7.15
Clc1ccc(-c2nc3ccc(Cl)cn3c2CN2CCOCC2)cc1 | 3.1
Cc1cc([N+](=O)[O-])nn1CC(=O)N/N=C/c1ccc(O)cc1O | 2.26
Cc1ccc(CNC(=O)c2nnc(Cc3ccc(Cl)cc3)o2)cc1 | 9.43
O=C(/C=C/Nc1ccc(S(=O)(=O)Nc2cnc3ccccc3n2)cc1)c1cccnc1 | 3.32
Cc1cc(OCc2nc(-c3ccc(NC(=O)c4cccnc4)cc3)no2)ccc1Cl | 12
COc1ccc(CNC(=O)C2CSC(c3ccc(OC)cc3)N2C(C)=O)cc1 (stereo not shown) | 5.4
NNC(=O)C1c2ccccc2Oc2ccccc21 | 15
NC(=O)CC(NC(=O)c1ccccc1)c1ccc(NCc2ccccn2)c([N+](=O)[O-])c1 (stereo not shown) | 7.17
O=C(C1CC1)N1CCN=C1SCc1ccccc1Cl | -1.4
